The text below walks through data of the RNAGym collection of RNA variant scans (doi:10.7554/elife.90254).

The source gives no read counts; variants with many changes may rest on few reads.

B1: LINE1-full (parent)
chain: UACGUAGGUGGUUUUCCCCUGAUAGUGCUAAGGGGGCCUGGAAGUUUGGACUGGGCAGAGCUCAACACAGCGUGGCAAAGUGGCUGUGGCUAGACUGCCUCUCUGGAUUCCUCGUCACUCAGCAGGGCAUCUCUGAGAGAAAUGCC

In this series the parent is B1. Description: self-cleavage, relative activity (ratio to wild type); higher = more cleavage; in vitro, sequencing; the parent is a self-cleaving ribozyme.
Turning to U13C U45C A107G, the self-cleavage was determined as 1.02. For U14A A121G G125U A142G, the self-cleavage came to 1.35. In the case of U14A U46C U112A it was 1.06; in that of U14C A57U G70U, 0.07; in that of U13C U20G G49A A67U U81A U100A, 0.14. For the variant U13C U45C U52A A65U C113U A136G, the self-cleavage came out at 0.13. With U14C A43G U130C, the self-cleavage amounted to 1.04. In the case of U13C U20C U29C A142U it was 1.48; in that of U13G A50U U100A A136G A142U, 0.92. Regarding U14A A65G A136G G144A, the self-cleavage was 0. As for U14A U45C U73C C113U, the self-cleavage was 1.25. In the case of U13C G40A A129G, the self-cleavage turned out to be 0.91.

For U13C G58U A94U, the self-cleavage is 0.1. With U14A A43G U45C, the self-cleavage was found to be 1.87. In the case of U13C U26A G72A C146U, the self-cleavage turned out to be 1.16. In the case of U13C G48A U62C A79U C98U it was 0.06.

In the case of U14C A22U A92U A140G, the self-cleavage was 0.33. Regarding U14A G48A A69G U134C, the self-cleavage turned out to be 0.54.

Regarding U13C U115C U134A, the self-cleavage is 0. For the variant U13G A94U U132A, the self-cleavage was 0.3. Take U13C U23C U134A: the self-cleavage came to 1.11. With U14A U29C A67G, the self-cleavage came out at 0. On to U13C U62C U81C U100C, for which the self-cleavage came to 0. Regarding U13G U23C U26A G97A A129U U134C, the self-cleavage amounted to 0.19. In the case of U13C U29C A79G it was 1.53; in that of U13C G35A C145U, 0.96; in that of U14C A22U U100C G122U, 2.02. On to U13C G70A A94G A107G, for which the self-cleavage was 0.1.

Consider U14A A43U U81C U115A A138G, for which the self-cleavage came out at 2.51. For the variant U14A C61U G125U, the self-cleavage is 0.04. Take U14A U46C U47C U100C: the self-cleavage was 0. For U13C U87C A121G A138U, the self-cleavage amounted to 0.92.

For U13C U46C U73A U115C, the self-cleavage worked out at 1.64. On to U14A G34U A65G A78G C118U, for which the self-cleavage worked out at 0.05. U14C A65G A107U: the self-cleavage is 0.12.

For the variant U14C A22G A50G U91C G97A, the self-cleavage turned out to be 0.36. Turning to U13C U52C U85A, the self-cleavage worked out at 0.05. As for U13C U104C U143C, the self-cleavage worked out at 1.39. In the case of U14A U52G A92G A138G it was 0. Turning to U14C A64U A69U U87C G114A, the self-cleavage was 0.05. Regarding U14A A42G U130G, the self-cleavage turned out to be 0.67.

As to U14C A50G A121G, the self-cleavage came to 1.19.

Consider U13C U52C C111U A138G, for which the self-cleavage is 1.1. As to U13C U15C A79U, the self-cleavage was found to be 2.32. As to U13G A129U A140U, the self-cleavage stood at 1.1. Turning to U14C A57U A79G U87A, the self-cleavage stood at 0.19. For the variant U13C G33C U91C G144A, the self-cleavage was 1.11. As for U14A U47C A78G, the self-cleavage was determined as 1.78.

Regarding U14C A50U U112C, the self-cleavage stood at 0.83. For the variant U14A G40A A124G, the self-cleavage was found to be 0.46. In the case of U13C U85C A141G it was 0.28. U14C A24G U87A U112A G139A: the self-cleavage came to 0.

For U13C U14A G80A A121U A141G, the self-cleavage was 1.67.

For the variant U14A U46C U100C C113U A117G, the self-cleavage is 2.22. On to U13C U14A A94G G114U A140G, for which the self-cleavage is 0.33. On to U13C U26C G114A A136U, for which the self-cleavage amounted to 1.46. With U13C U47C A57U, the self-cleavage came to 0.11. With U14C A57G A69G U96C, the self-cleavage came to 1.84. Turning to U13C U23A U39A U109C A136G, the self-cleavage is 1.48.

With U14A A31U A78G, the self-cleavage is 0.96. With U14A U52A A142G, the self-cleavage was determined as 1.13. On to U13C U26C A142G, for which the self-cleavage is 1.41. For U13C U62A C71G A124G U134C A136G, the self-cleavage was found to be 0. On to U13C U85A G88U U100A A129G U134C A142G, for which the self-cleavage came out at 0.15. For U13C U23C U26C A124U A138G the value was 0; for U13C U62A U104C A138G A141G A142G, 0. U13C G127A U132C: the self-cleavage turned out to be 2.07. With U13C U73A U85C, the self-cleavage was found to be 0.21.

As for U13C U46A A59C G127A, the self-cleavage was found to be 0.79.

With U14C A42G A78G U96A, the self-cleavage is 0.19. For U13C U62A A129U A140G the value was 0.08; for U13C G33A A124G, 0.61. Regarding U13C G33A A124U, the self-cleavage is 0.92. As for U14A U45C U87C, the self-cleavage was 0.16. For the variant U13C U39A U62A, the self-cleavage amounted to 0.13. For the variant U13C U45A G55A, the self-cleavage turned out to be 0.22.

For U14C A59G A69U, the self-cleavage amounted to 0.

Take U13C U134C G135A: the self-cleavage was determined as 1.12.

For the variant U14C A65G C103U, the self-cleavage stood at 0.12. Turning to U14C A64G U73C, the self-cleavage is 0.44. U13C U96C U108C U112C: the self-cleavage stood at 0.54. For U14C A57U U73A A142G the value was 0.05; for U14A U39A U47C C56U, 0.22. With U14A U62C A79G A92U, the self-cleavage worked out at 0. As for U13C U96C U132A, the self-cleavage was determined as 0.09.

On to U13G G33U G105A A129G A138G, for which the self-cleavage came out at 1.11. For U14A U85G A140G, the self-cleavage came to 0.08. For the variant U13C U73C U115A A124G, the self-cleavage worked out at 2.85. For U13C U46C C71U A92G the value was 0.09; for U13C U47A U87C U115A G144A, 0.21. As for U14C A43G U47A, the self-cleavage worked out at 0.95. For U13C U85A U87A, the self-cleavage is 0.25.

As to U14A U104C C116U, the self-cleavage amounted to 1.31. For the variant U13C U100A U130C, the self-cleavage came out at 0.66. As for U13C U52C A129G, the self-cleavage was determined as 0.54. U13C U73C A117U U134C: the self-cleavage was 1.6. For U14A A64G U100A U112A, the self-cleavage worked out at 0.17. For U13C U112A U143C the value was 1.08.

On to U13C U46C A79G U132C, for which the self-cleavage was determined as 1. As to U14C A57G U96C, the self-cleavage is 1.53. In the case of U14A U112A U115G it was 1.46; in that of U14C A22G U47A G60U U62C U96A U119C, 0.12; in that of U13C U39A A107G U108C A138U, 2.3.

Regarding U13C U73C U102C C123U, the self-cleavage worked out at 1.56. Consider U13C G49A U109C U119A A124U U143A, for which the self-cleavage turned out to be 1.1.

With U13C G34U G41A A50G A69U A129U, the self-cleavage was 0.13.

As to U14A U15C A77G U130C, the self-cleavage stood at 1.84. As to U14A U52A A94G A136U, the self-cleavage came to 0.68. U14A A43G U100C U112A: the self-cleavage worked out at 0.4. U13G U81C A124G: the self-cleavage was determined as 0.4. As for U14C A22G G32A U45C U46A A94G, the self-cleavage turned out to be 0. For U13C U29C A30G the value was 1.53; for U13C U23C A79G U102C, 0.57. Take U14C A64G A67U U102C: the self-cleavage amounted to 0. Regarding U14C A43G A141G, the self-cleavage is 1.29. In the case of U13C U87A C123U it was 0.13. In the case of U13C U52A A67G it was 0. Consider U13C U39C A78U U119A, for which the self-cleavage was found to be 2.32. As to U14A A129C U132C, the self-cleavage worked out at 0.99. Turning to U14C A67G A69U A107G A136G A138G, the self-cleavage stood at 0. On to U13G U47C G53A U132A, for which the self-cleavage was 0.84. Consider U13C U15A U26C A121U, for which the self-cleavage was 1.04. For the variant U13C U20C G88U, the self-cleavage worked out at 0.17. As to U14A U20G U62C G93U U102C C133U, the self-cleavage turned out to be 0.29.

Take U13C G137A A141G A142G: the self-cleavage was found to be 1.33. U14A U47A U119A A140G: the self-cleavage amounted to 0.95. Regarding U13C U26C A57U, the self-cleavage was found to be 0.51.

With U13C U46C A50G U52A U104A, the self-cleavage is 0.75. As for U13G U134C A141G, the self-cleavage was 0.92.

In the case of U13C U62C C76U A78G U134C, the self-cleavage worked out at 0.06. On to U14C A43G U104C A129U, for which the self-cleavage was 1.75. Take U13C U20C C56U U96C A141G: the self-cleavage turned out to be 0.05. For U14C A43G U91C U100A, the self-cleavage turned out to be 0.19. For the variant U13C U52A U85C G105A, the self-cleavage is 0.15.

On to U13C U100C U143C, for which the self-cleavage was 1.51. For U13C U15C U20A U26C U39A C76U A142G, the self-cleavage amounted to 1.53. Take U14C A31G A79G U96C: the self-cleavage is 0. Consider U13C U29C G114A U115C A142U, for which the self-cleavage stood at 1.37. Regarding U14A A24G A57G A65G, the self-cleavage worked out at 0. U14C A24U U47A A64G U81A: the self-cleavage amounted to 0.53. U14C A43G U73A A124G: the self-cleavage amounted to 1.41.

On to U13G U26G A138U, for which the self-cleavage was 0.26. In the case of U13C U15A U45C G53A it was 0.48; in that of U13C U119C U143C, 1.38; in that of U13C U91C A138G, 1.67. Take U13C U130C A142G: the self-cleavage was determined as 1.21. Consider U13C U109A U119A, for which the self-cleavage was determined as 0.82. On to U14A A22G A78G, for which the self-cleavage came to 0.88. In the case of U13C G72A A136G A142G it was 1.02; in that of U13C U62A A78C, 0.16.

As for U14A U62C A107U A117G G126U, the self-cleavage was 0.08.

For the variant U14C A59G A67G U73A, the self-cleavage is 0.2. In the case of U13C U15A A31U U39A A69G, the self-cleavage is 0.77. In the case of U13C U115C U119C, the self-cleavage worked out at 2.76. As for U13C G41A U102C, the self-cleavage was found to be 1.13. For the variant U14C A43G U62C G122A U134A, the self-cleavage was determined as 0.09.

Regarding U13C U15C A57U, the self-cleavage stood at 0.

Take U13C U15C U47A U52A U85C: the self-cleavage is 0.58. In the case of U14C A22G U47A U108C C133U U143C it was 1.61. For U14C A30G A141G the value was 0.33; for U14A G34A A117G, 1.21; for U14A U45A C123G U132A, 1.05. Consider U13C U45C G70A, for which the self-cleavage amounted to 0.14. In the case of U13C U115C U132A it was 1.77; in that of U14A A43G A77G, 0. Turning to U13C U20C U81A A121G G126U, the self-cleavage turned out to be 2.53.

Turning to U13C U132C U143C G144A, the self-cleavage amounted to 1.48.
